This is one part of the list.
system: T1, C. trachomatis L2/434/Bu expressing GFP (CTL2-GFP); parameters: species or system HeLa; C. trachomatis total inclusion area by high-content imaging, normalised to DMSO; details: total inclusion area; 28.5 h, 10 µM; inhibitor
T1 construct: L2/434/Bu GFP intracellular growth in HeLa cells
Procedure, shortened: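 Bulk GFP and resorufin signals were read first. Wells were then fixed, stained with Hoechst and imaged to detect GFP inclusions and host nuclei. MICs followed the previously described calculation.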

Compound | % of control remaining
O=C(Nc1ccc2oc(-c3cccnc3)nc2c1)c1cccc(OCc2ccccc2)c1 [CBK263420] | 117.618
CN(CC(=O)Nc1ccccc1-c1ccccc1)S(=O)(=O)c1ccc2ccccc2c1 [CBK267432] | 87.9982
O=C(O)CCCC(=O)N1CCN2C(=O)c3cc(Br)ccc3NC(=O)[C@@H]2C1 [CBK289581] | 107.592
OCc1ccccc1-c1cncc(NCc2cccs2)n1 [CBK065345] | 79.5603
CCN1C(=O)C2(CC(=O)N(CCc3scnc3C)C2=O)c2cc(C)ccc21 (centres unmarked) [CBK075217] | 100.983
Cc1cc(C)cc(NC(=O)C2C3C4CCC(C4)C23)c1 (centres unmarked) [CBK058768] | 67.7246
CCc1nccn1CCN1CCCC(COc2ccccc2F)C1 (centres unmarked) [CBK307416] | 30.2947
O=C(Nc1cccc(C(=O)O)c1)Nc1ccc(Cl)c(Cl)c1 [CBK155455G] | 88.0033
CN1CCN(c2cc(CNC(=O)c3ccnc(Cl)c3)ccn2)CC1 [CBK298275] | 58.1613
Cc1[nH]c2ccccc2c1[C@H]1CC[C@@H](NC(=O)c2ccnn2C)C1 [CBK284761] | 98.3057
COc1ccc(N2C(=S)N(Cc3cccs3)[C@H]3[C@@H](O)[C@H](O)C[C@@H](C(N)=O)[C@H]32)cc1 [CBK288929] | 89.5299
CCCCN(C)c1c(CC)nc2ccc(C(=O)NCCc3ccccn3)cn12 [CBK145441] | 61.7717
COc1cc2[nH]c(=S)n(CCc3ccc(S(N)(=O)=O)cc3)c(=O)c2cc1OC [CBK268457] | 91.3097
CS(=O)(=O)N1CCN(c2ccccc2NC(=O)COc2ccc(Cl)cc2)CC1 [CBK268854] | 110.594
CCN(CC)C(=O)C1CCCN(C(=O)NCc2cc(C)on2)C1 (centres unmarked) [CBK156114] | 85.7226
c1ccc(N2CCOCC2)c(COc2cncc(N3CCNCC3)n2)c1 [CBK172351G] | 97.8298
O=C1NC2(CC3CCC2N3Cc2ccco2)Nc2ccccc21 (centres unmarked) [CBK284446] | 115.681
COc1ccc(-c2cc(NC3CCCCC3)ncn2)cc1 [CBK090904] | 113.107
NNC(=O)c1cc2ccccc2cc1NS(=O)(=O)c1ccccc1 [CBK263261] | 101.384
Cc1nn(Cc2ccccc2)c(Cl)c1C=Cc1cc(C(=O)O)c2ccccc2n1 [CBK296942] | 91.4904
CC(CNC(=O)c1ccc([N+](=O)[O-])o1)N1CCc2sccc2C1 (centres unmarked) [CBK297749] | 70.2628
COCCn1c(CO)nnc1[C@H]1C[C@@H](NC(=O)c2ccc(O)c(F)c2)C1 [CBK307132] | 77.9683
CCNC(=O)Nc1ncc(-c2cc(OC)c(OC)c(OC)c2)c2cccnc12 [CBK070635] | 73.694
O=C(/C=C/c1ccc(C(=O)Nc2cccnc2)cc1)Nc1cccnc1 [CBK265617] | 100.751
NS(=O)(=O)c1cc(C(=O)NCCc2ccc(F)cc2)c(Cl)cc1Cl [CBK288512] | 58.1685
CCOc1ccc(OC(=O)c2ccc(OC(F)(F)F)cc2)cc1 [CBK149207] | 87.4077
O=C1CCCN1CCCNC(=O)N1CCCCC1CO (centres unmarked) [CBK155985] | 84.6652

Compound | % of control remaining
O=C(O)CCNc1nc(Cc2ccccc2)nc2sc3c(c12)CCCC3 [CBK265345] | 88.925
COc1ccccc1C1NC(=O)COC12CCN(Cc1ccccc1)CC2 (centres unmarked) [CBK092265] | 87.9561
Cn1cnc2c1c(=O)n(CCCN1C(=O)C3(CC(=O)N(Cc4ccccc4)C3=O)c3cc(F)ccc31)c(=O)n2C (centres unmarked) [CBK075717] | 129.947
CSc1nnc(-c2cccc(C)c2)n1CC(C)C [CBK076764T] | 21.4185
O=C(NCc1ccco1)c1cnoc1-c1ccc(F)cc1 [CBK154960] | 85.9353
CC(C)CN(Cc1ccc2c(c1)OCO2)C(=O)NCc1ccc2c(c1)OCO2 [CBK159071] | 100.518
O=c1cc(-c2ccccc2)nc(N2CCOCC2)[nH]1 [CBK003840] | 89.115
CCN(CC)C(=O)Cc1ccc(NC(=O)NCc2cnn(C)c2)cc1 [CBK304918] | 35.2523
O=C(c1cc[nH]n1)N1CCOCC1 [CBK027868] | 107.191
Cn1c(=O)oc2ccccc2c1=O [CBK015658] | 49.0959
CN(C)CCN(C)c1cncc(-c2cccs2)n1 [CBK065679] | 106.993
CCCCc1noc(C(C)S(=O)(=O)Cc2csc(CCCC)n2)n1 (centres unmarked) [CBK305431] | 96.4362
COc1cc(F)ccc1-c1ccnc2[nH]c(=O)ccc12 [CBK073727] | 99.0454
Cc1ccc(C2(CN3CCN(CC4CCOC4)CC3)CC2)cc1 (centres unmarked) [CBK282479] | 108.016
Cc1ccc(C2Nc3ccccc3C3=NCCCN32)o1 (centres unmarked) [CBK284488] | 46.7753
CC(C)Cc1cc(CNC(=O)C(C)n2cc(Cl)cn2)on1 (centres unmarked) [CBK281524] | 101.549
CCn1cc(C(=O)O)c(=O)c2cc(F)c(N3CCN(C(=S)Nc4ccc(F)c(Cl)c4)CC3)cc21 [CBK267921] | 108.988
c1coc(-c2nccnc2NCc2cccs2)c1 [CBK037340] | 105.63
COc1ccc([C@@]23CCC(NC(=O)Nc4ccc(OCc5ccccc5)cc4)C[C@@H]2N(C)CC3)cc1OC (some centres unmarked) [CBK047551T] | 90.3834
CCN(CC)CCn1c2ccc(C)cc2c2nc(C)sc21 [CBK269764C] | 26.8339
CCCCCOc1ccc(Nc2ccc(-c3cc4ccccc4o3)cn2)cc1 [CBK036828] | 89.3181
O=C(NC1(C(F)(F)F)NC(=O)N(CCc2ccccc2)C1=O)c1ccco1 (centres unmarked) [CBK267482] | 88.9798
Cc1ccc2c(c1)C1(CC(=O)N(C)C1=O)C(=O)N2CCCOc1ccccc1 (centres unmarked) [CBK075496] | 107.933
N#Cc1ccsc1NC(=O)CN1CCN(c2cccc(Cl)c2)CC1 [CBK306192] | 51.876
O=C(/C=C/c1ccc2c(c1)OCO2)NCCSCc1c(F)cccc1Cl [CBK265239] | 86.551
O=C1CSC(c2cn(-c3ccccc3)nc2-c2ccc(Br)cc2)N1Cc1ccccc1 (centres unmarked) [CBK263146] | 107.12
CC(C)(c1ccccc1)c1ccc(OCCOc2ccc(/C=C3\SC(=S)NC3=O)cc2)cc1 [CBK264378] | 109.944

Compound | % of control remaining
CC1(C(=O)O)CC(C)(C(=O)O)CC(C)(C(=O)O)C1 (centres unmarked) [CBK266107] | 77.4244
Cc1nc2sccn2c(=O)c1NC(=O)c1ccccn1 [CBK287665] | 80.7509
COc1ccc(-c2cnc(N)nc2C2CCCN(C(=O)CCCc3ccccc3)C2)cc1 (centres unmarked) [CBK286091] | 102.396
COc1ccc(OCC(=O)N2CCN(S(=O)(=O)c3ccccc3[N+](=O)[O-])CC2)cc1 [CBK264213] | 106.219
CN(C)CC1CCCCN1S(=O)(=O)c1ccc(C(C)(C)C)cc1 (centres unmarked) [CBK051347] | 113.871
Cc1noc(C)c1C(=O)NCCc1ccc(S(N)(=O)=O)cc1 [CBK268143] | 104.124
NC(=O)CCNC(=O)c1ccc2[nH]ccc2c1 [CBK149082] | 96.3434
CO/N=C\c1c(CO)cnc(C)c1O [CBK022776] | 77.1181
CC(=O)NS(=O)(=O)c1ccc(Nc2ccc([N+](=O)[O-])c3nonc23)cc1 [CBK261443] | 96.3868
CC(C)(C)c1n[nH]c(C2CN(C(=O)CCc3cscn3)CCO2)n1 (centres unmarked) [CBK305205] | 7.559
CC(=O)c1ccc(-c2cnc(N)c(N3CCC[C@@H]3CO)n2)s1 [CBK063438] | 105.78
CC(=O)Nc1nc(-c2ccccc2C)ccc1C(=O)NC1CCCCC1 [CBK106327] | 108.723
Cc1c(Cl)cccc1S(=O)(=O)Nc1c(C(=O)N2CCOCC2)[nH]c2ccccc12 [CBK050076] | 102.407
O=C1NN(c2ccc(F)c(Cl)c2)C(=O)/C1=C/c1ccc(-c2ccc(Cl)cc2)o1 [CBK095978] | 62.2634
CCOCCn1cnc2sc(C(=O)NCc3ccccn3)c(C)c2c1=O [CBK071857] | 106.207
CN1C(=O)/C(=C2\SC(=S)N(C(CC(=O)O)C(=O)O)C2=O)c2ccccc21 (centres unmarked) [CBK261012] | 64.6544
FC(F)(F)Oc1ccc(-c2nccnc2OCC2COc3ccccc3O2)cc1 (centres unmarked) [CBK106845] | 93.0571
C#C[C@H]1C[N@@]2CC[C@H]1C[C@@H]2CNS(=O)(=O)c1ccc(NC(C)=O)cc1 [CBK288752] | 76.0018
Cc1cc(C)c2c(OCC(=O)N(C)CC(=O)NC(C)C)nn(C)c2n1 [CBK304931] | 53.6001
O=C(NCCCN1CCCC(O)C1)N1CCCN(Cc2cccs2)CC1 (centres unmarked) [CBK307116] | 18.1744
Cc1c2cn[nH]c(=O)c2c(C)n1-c1ccccc1 [CBK018349] | 47.8997
O=C(O)CCCC(=O)Nc1ccc(Cc2ccncc2)cc1 [CBK300493] | 91.8762
Cc1ccc(-c2ccc(CCC(=O)O)[nH]2)cc1 [CBK264820] | 101.104
CCC(=O)Nc1nc(-c2ccc(OC)cc2)cs1 [CBK070494] | 99.6056
CN(C)c1nc(N(C)CC2(CO)CCOCC2)ncc1F [CBK307091] | 102.664
c1ccc2c(c1)OCC(COc1cncc(OC3CCN(CC4CCCCC4)C3)n1)O2 (centres unmarked) [CBK084387] | 69.7919
